Measurements as given in the supplement of paper PMC4996465.
Viability of KB3-1 and Nalm-6 cells after 48 h of drug alone (CellTiter-Glo), 11 doses over about 4.5 log units. % of DMSO wells, lower = more cell loss; AC50 from the fitted curve, lower = more potent. No active / inactive call. Nalm-6 was screened in two runs. AC50 is listed only for well-fitted inhibitory curves. KB3-1 is a HeLa-derived carcinoma line, Nalm-6 a B-cell precursor leukaemia line.

Assays:
Nalm-6 [1] = test: log AC50 of viability decrease (48 h) (log10 M); higher = less potent
Description: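 Eleven-dose screen of the NCATS MIPE 3 library on cells without co-treatment; CellTiter-Glo after 48 h. AC50 from the curve fit; only inhibitory curves of the better fit classes are listed.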

Nalm-6 [2] = test: viability (% of DMSO control); higher = more viable cells
Description: (§1)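 Eleven-dose screen of the NCATS MIPE 3 library on cells without co-treatment; CellTiter-Glo after 48 h, as % of DMSO wells.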

KB3-1 = test: as above
Description: as §1

Clc1ccc2ncc(-c3cccc(NC4CNC4)n3)n2c1
Settings | log AC50 of viability decrease | viability [%]
KB3-1, 0.00078 µM | – | 91.8
KB3-1, 0.00234 µM | – | 95.1
KB3-1, 0.00702 µM | – | 95.6
KB3-1, 0.0211 µM | – | 89.2
KB3-1, 0.0632 µM | – | 97.4
KB3-1, 0.19 µM | – | 94.2
KB3-1, 0.569 µM | – | 91.8
KB3-1, 1.71 µM | – | 99.7
KB3-1, 5.12 µM | – | 99.4
KB3-1, 15.4 µM | – | 92.9
KB3-1, 46.1 µM | – | 30.2
Nalm-6 [1], run: 1 | -4.83 | –
Nalm-6 [1], run: 2 | -4.68 | –
Nalm-6 [2], run: 1, 0.00078 µM | – | 107
Nalm-6 [2], run: 1, 0.00234 µM | – | 101
Nalm-6 [2], run: 1, 0.00702 µM | – | 107
Nalm-6 [2], run: 1, 0.0211 µM | – | 109
Nalm-6 [2], run: 1, 0.0632 µM | – | 114
Nalm-6 [2], run: 1, 0.19 µM | – | 114
Nalm-6 [2], run: 1, 0.569 µM | – | 98.4
Nalm-6 [2], run: 1, 1.71 µM | – | 99.9
Nalm-6 [2], run: 1, 5.12 µM | – | 87.1
Nalm-6 [2], run: 1, 15.4 µM | – | 47.3
Nalm-6 [2], run: 1, 46.1 µM | – | 7.64
Nalm-6 [2], run: 2, 0.00078 µM | – | 106
Nalm-6 [2], run: 2, 0.00234 µM | – | 109
Nalm-6 [2], run: 2, 0.00702 µM | – | 108
Nalm-6 [2], run: 2, 0.0211 µM | – | 111
Nalm-6 [2], run: 2, 0.0632 µM | – | 105
Nalm-6 [2], run: 2, 0.19 µM | – | 103
Nalm-6 [2], run: 2, 0.569 µM | – | 105
Nalm-6 [2], run: 2, 1.71 µM | – | 102
Nalm-6 [2], run: 2, 5.12 µM | – | 84.2
Nalm-6 [2], run: 2, 15.4 µM | – | 82
Nalm-6 [2], run: 2, 46.1 µM | – | 11.9

O=C(O)c1ccc(O)c2ncc(N3CCOCC3)cc12
Settings | log AC50 of viability decrease | viability [%]
KB3-1, 0.00078 µM | – | 101
KB3-1, 0.00234 µM | – | 104
KB3-1, 0.00702 µM | – | 99.8
KB3-1, 0.0211 µM | – | 101
KB3-1, 0.0632 µM | – | 98.3
KB3-1, 0.19 µM | – | 93.9
KB3-1, 0.569 µM | – | 102
KB3-1, 1.71 µM | – | 104
KB3-1, 5.12 µM | – | 105
KB3-1, 15.4 µM | – | 107
KB3-1, 46.1 µM | – | 95.2
Nalm-6 [1], run: 1 | -4.68 | –
Nalm-6 [2], run: 1, 0.00078 µM | – | 106
Nalm-6 [2], run: 1, 0.00234 µM | – | 106
Nalm-6 [2], run: 1, 0.00702 µM | – | 108
Nalm-6 [2], run: 1, 0.0211 µM | – | 111
Nalm-6 [2], run: 1, 0.0632 µM | – | 114
Nalm-6 [2], run: 1, 0.19 µM | – | 107
Nalm-6 [2], run: 1, 0.569 µM | – | 99.7
Nalm-6 [2], run: 1, 1.71 µM | – | 102
Nalm-6 [2], run: 1, 5.12 µM | – | 102
Nalm-6 [2], run: 1, 15.4 µM | – | 93.1
Nalm-6 [2], run: 1, 46.1 µM | – | 51.8
Nalm-6 [2], run: 2, 0.00078 µM | – | 106
Nalm-6 [2], run: 2, 0.00234 µM | – | 108
Nalm-6 [2], run: 2, 0.00702 µM | – | 96.6
Nalm-6 [2], run: 2, 0.0211 µM | – | 105
Nalm-6 [2], run: 2, 0.0632 µM | – | 106
Nalm-6 [2], run: 2, 0.19 µM | – | 106
Nalm-6 [2], run: 2, 0.569 µM | – | 103
Nalm-6 [2], run: 2, 1.71 µM | – | 103
Nalm-6 [2], run: 2, 5.12 µM | – | 109
Nalm-6 [2], run: 2, 15.4 µM | – | 106
Nalm-6 [2], run: 2, 46.1 µM | – | 35.4

O=S(=O)(/N=C/c1c(O)ccc2ccccc12)c1cccs1
Settings | log AC50 of viability decrease | viability [%]
KB3-1, 0.00078 µM | – | 103
KB3-1, 0.00234 µM | – | 105
KB3-1, 0.00702 µM | – | 105
KB3-1, 0.0211 µM | – | 111
KB3-1, 0.0632 µM | – | 103
KB3-1, 0.19 µM | – | 106
KB3-1, 0.569 µM | – | 100
KB3-1, 1.71 µM | – | 108
KB3-1, 5.12 µM | – | 104
KB3-1, 15.4 µM | – | 104
KB3-1, 46.1 µM | – | 92.6
Nalm-6 [1], run: 2 | -4.78 | –
Nalm-6 [2], run: 1, 0.00078 µM | – | 117
Nalm-6 [2], run: 1, 0.00234 µM | – | 113
Nalm-6 [2], run: 1, 0.00702 µM | – | 117
Nalm-6 [2], run: 1, 0.0211 µM | – | 115
Nalm-6 [2], run: 1, 0.0632 µM | – | 112
Nalm-6 [2], run: 1, 0.19 µM | – | 108
Nalm-6 [2], run: 1, 0.569 µM | – | 116
Nalm-6 [2], run: 1, 1.71 µM | – | 101
Nalm-6 [2], run: 1, 5.12 µM | – | 104
Nalm-6 [2], run: 1, 15.4 µM | – | 105
Nalm-6 [2], run: 1, 46.1 µM | – | 49
Nalm-6 [2], run: 2, 0.00078 µM | – | 103
Nalm-6 [2], run: 2, 0.00234 µM | – | 104
Nalm-6 [2], run: 2, 0.00702 µM | – | 105
Nalm-6 [2], run: 2, 0.0211 µM | – | 103
Nalm-6 [2], run: 2, 0.0632 µM | – | 103
Nalm-6 [2], run: 2, 0.19 µM | – | 103
Nalm-6 [2], run: 2, 0.569 µM | – | 101
Nalm-6 [2], run: 2, 1.71 µM | – | 97.8
Nalm-6 [2], run: 2, 5.12 µM | – | 101
Nalm-6 [2], run: 2, 15.4 µM | – | 68.5
Nalm-6 [2], run: 2, 46.1 µM | – | 35.6

NC/1=N/C(=O)N(/C=C1)[C@@H]2O[C@H](CO)[C@@H](O)C2(F)F [Gemcitabine]
Settings | log AC50 of viability decrease | viability [%]
Nalm-6 [1], run: 1 | -7.72 | –
Nalm-6 [1], run: 2 | -7.92 | –
Nalm-6 [2], run: 1, 0.00156 µM | – | 94.3
Nalm-6 [2], run: 1, 0.00468 µM | – | 67.8
Nalm-6 [2], run: 1, 0.014 µM | – | 53.7
Nalm-6 [2], run: 1, 0.0421 µM | – | 41.2
Nalm-6 [2], run: 1, 0.126 µM | – | 36.9
Nalm-6 [2], run: 1, 0.379 µM | – | 31.6
Nalm-6 [2], run: 1, 1.14 µM | – | 27.8
Nalm-6 [2], run: 1, 3.41 µM | – | 19.7
Nalm-6 [2], run: 1, 10.2 µM | – | 13.2
Nalm-6 [2], run: 1, 30.7 µM | – | 6.7
Nalm-6 [2], run: 1, 92.2 µM | – | 3.99
Nalm-6 [2], run: 2, 0.00156 µM | – | 98.1
Nalm-6 [2], run: 2, 0.00468 µM | – | 68.5
Nalm-6 [2], run: 2, 0.014 µM | – | 48.7
Nalm-6 [2], run: 2, 0.0421 µM | – | 35.9
Nalm-6 [2], run: 2, 0.126 µM | – | 29.3
Nalm-6 [2], run: 2, 0.379 µM | – | 25.3
Nalm-6 [2], run: 2, 1.14 µM | – | 18.6
Nalm-6 [2], run: 2, 3.41 µM | – | 10.1
Nalm-6 [2], run: 2, 10.2 µM | – | 7.39
Nalm-6 [2], run: 2, 30.7 µM | – | 5.9
Nalm-6 [2], run: 2, 92.2 µM | – | 5.91
